# Measurements published in paper PMC4336329 (PLoS ONE, 2015).
# In all, about 310,000 compounds went through this assay and about 2,200 (0.71%) showed an effect of 50% or more. The effect is printed as a negative number. This is one part of the list.
# Molecular target: human ether-à-go-go-related gene (hERG) potassium channel (human, UniProt Q12809)
# Test: primary screen, population patch clamp on CHO cells stably expressing hERG
# human ether-à-go-go-related gene (hERG) potassium channel, sequence (Q12809 whole entry, looked up): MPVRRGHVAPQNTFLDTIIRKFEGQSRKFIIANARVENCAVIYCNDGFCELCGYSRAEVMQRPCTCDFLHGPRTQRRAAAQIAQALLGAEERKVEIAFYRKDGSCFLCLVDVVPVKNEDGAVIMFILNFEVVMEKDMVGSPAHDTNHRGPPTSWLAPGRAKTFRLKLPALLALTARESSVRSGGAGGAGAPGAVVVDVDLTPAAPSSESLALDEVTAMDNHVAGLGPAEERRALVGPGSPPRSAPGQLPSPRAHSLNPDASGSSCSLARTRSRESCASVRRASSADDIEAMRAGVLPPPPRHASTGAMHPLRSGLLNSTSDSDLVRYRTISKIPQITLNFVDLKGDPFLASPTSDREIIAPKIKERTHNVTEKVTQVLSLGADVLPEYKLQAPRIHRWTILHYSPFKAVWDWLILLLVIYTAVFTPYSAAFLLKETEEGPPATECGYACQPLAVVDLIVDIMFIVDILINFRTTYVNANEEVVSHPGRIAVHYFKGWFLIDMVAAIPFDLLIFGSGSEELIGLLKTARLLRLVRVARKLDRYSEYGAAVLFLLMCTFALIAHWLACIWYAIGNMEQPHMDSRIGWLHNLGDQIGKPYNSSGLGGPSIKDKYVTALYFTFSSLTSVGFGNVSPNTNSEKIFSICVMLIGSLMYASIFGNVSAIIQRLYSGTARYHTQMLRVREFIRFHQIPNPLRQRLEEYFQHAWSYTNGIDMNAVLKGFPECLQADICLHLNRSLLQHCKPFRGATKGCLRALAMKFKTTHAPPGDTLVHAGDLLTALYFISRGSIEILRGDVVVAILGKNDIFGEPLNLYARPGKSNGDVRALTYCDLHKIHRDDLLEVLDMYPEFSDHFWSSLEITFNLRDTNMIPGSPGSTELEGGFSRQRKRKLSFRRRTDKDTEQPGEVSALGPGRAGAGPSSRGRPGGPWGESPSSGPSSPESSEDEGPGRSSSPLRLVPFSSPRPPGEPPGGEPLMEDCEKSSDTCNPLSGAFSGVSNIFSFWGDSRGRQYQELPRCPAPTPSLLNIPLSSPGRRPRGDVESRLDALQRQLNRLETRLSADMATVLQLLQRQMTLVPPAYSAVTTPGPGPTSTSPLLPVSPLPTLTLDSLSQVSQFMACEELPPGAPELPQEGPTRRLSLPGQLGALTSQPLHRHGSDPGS
row,SMILES,"hERG current change (%, negative = inhibition) at 1uM"
1,Clc1ccc(Cn2cccn2)cn1,10.1%
2,Cc1noc(C)c1COC(=O)CCCNC(=O)c1ccc(Cl)cc1,5.76%
3,Cc1nnc(SCC(=O)NC(C)(C)C)n1CCc1ccccc1,-2.61%
4,CCOc1ccc2[nH]c(O)c(NC(C)=O)c2c1,5.98%
5,COc1ccc(S(=O)(=O)N2CCCC2C(=O)NCC(=O)Nc2cccc(Cl)c2C)cc1 (stereo not drawn),8.7%
6,COc1ccc(-c2csc3ncnc(N4CCN(c5cccc(OC)c5)CC4)c23)cc1,12.8%
7,COC(=O)[C@@H](NC(=O)/C=C/c1ccc(OC)cc1)C(C)C,5.71%
8,CC1(C)CSC(=NCCc2ccccc2)N1C(=O)c1ccc(C#N)cc1,8.17%
9,Cc1nn(C)c(C(=O)NNC(=S)NC2CCCCC2)c1Cl,1.45%
10,COc1ccccc1NC(=O)Cn1c(C)cc(=O)c2cccc(OC)c21,4.22%
11,O=C(c1ccc(Cl)c([N+](=O)[O-])c1)N1CCCc2ccccc21,8.52%
12,CN(CC(=O)Nc1cccc(F)c1)C(=O)c1ccc(OCC2CCCO2)cc1 (stereo not drawn),1.5%
13,COc1ccc(C(CNC(=O)c2cccc(NS(=O)(=O)c3ccc(C)c(F)c3)c2)N2CCOCC2)cc1 (stereo not drawn),7.97%
14,CN(C)C(CNC(=O)CCCOc1ccccc1)c1ccco1 (stereo not drawn),13%
15,CCCN1C(=O)C(Cc2nc3ccccc3c(=O)n2-c2ccccc2)c2ccccc21 (stereo not drawn),18.3%
16,O=C(N/C(=C\c1cccnc1)C(=O)N1CCOCC1)c1ccco1,2.72%
17,C=CCON/C(CCC)=C1\C(=O)CC(C)(C)CC1=NC,18.6%
18,C=CCn1c(COc2ccc(Cl)cc2)nnc1SCC(=O)Nc1ccc(S(N)(=O)=O)cc1,1.47%
19,Cc1ccc(S(=O)(=O)N(C)C)cc1NC(=O)COC(=O)C1(c2ccccc2)CC1,10.9%

row,SMILES,"hERG current change (%, negative = inhibition) at 1uM"
1,O=C(CSc1nc2ccccc2o1)N/N=C/c1ccccc1C(=O)O,12.5%
2,Cc1ccc(C)c(C(=O)CC2(O)C(=O)Nc3ccccc32)c1 (stereo not drawn),4.21%
3,CN(C)C(CNC(=O)c1ccc(NC(=O)c2cccs2)cc1)c1ccccc1 (stereo not drawn),13.8%
4,Cl.Fc1ccc(Nc2nc(N3CCOCC3)nc(N3CCOCC3)n2)cc1,11.1%
5,COc1cccc(NC(=O)c2cc(-c3cccnc3)nc3c(Cl)cccc23)c1,7.59%
6,COc1ccc(C2C(C(C)=O)=C(C)N=c3s/c(=C\c4ccc5c(c4)OCO5)c(=O)n32)c(OC)c1 (stereo not drawn),14.2%
7,CCOc1cc(C(=O)NCc2ccccc2)ccc1OCC(=O)N1CCCCC1,5.79%
8,CCOC(=O)C1=C(COC(=O)CNC(=O)c2ccc(C(C)(C)C)cc2)NC(=O)NC1C (stereo not drawn),17.4%
9,O=C(Nc1nc(-c2ccccc2)cs1)C1CCCN(S(=O)(=O)c2ccccc2)C1 (stereo not drawn),-0.82%
10,O=[N+]([O-])c1cccc(S(=O)(=O)N2CCN(S(=O)(=O)N3CCCCCC3)CC2)c1,17.7%
11,O=C(Nc1ccc(N2CCN(Cc3ccccc3Cl)CC2)cc1)c1cccnc1,7.24%
12,OC(c1ccccc1)(c1ccccc1)c1ccncc1,14.6%
13,Cc1ccc(CCNS(=O)(=O)c2ccc(C)cc2)cc1,5.43%
14,Cc1cccc(-n2c(=O)cc(N3CCN(c4ccc(F)cc4)CC3)[nH]c2=O)c1,1.83%
15,CC(C)(C)c1ccc(-n2ncc3c2CCCC3NC(=O)CCN2CCCO2)cc1 (stereo not drawn),5.11%
16,O=C(Nc1ccc(F)cc1)C1CCCN(S(=O)(=O)c2ccc3[nH]c(=O)ccc3c2)C1 (stereo not drawn),-0.985%
17,COc1ccc(CCNC(=O)c2noc(C(C)C)c2[N+](=O)[O-])cc1OC,14.6%
18,CCN(CC)CCCCCOc1ccccc1OC,14%
19,O=C(Cn1c(=S)[nH]c2ccccc2c1=O)NCCc1ccccc1,15.8%

row,SMILES,"hERG current change (%, negative = inhibition) at 1uM"
1,O=C(O)CCCCCn1c(SCc2cc(=O)n3ccccc3n2)nc2ccsc2c1=O,6.41%
2,O=C(NCCS(=O)(=O)NCc1ccccc1)c1ccccc1,4.32%
3,O=C1C=C(N2CCOCC2)c2ccccc2C1=O,14.9%
4,COc1ccc2c(c1)c1nnc(SCC(=O)Nc3ccccc3F)nc1n2C,10.7%
5,CCN(CC(=O)Nc1ccc(NC(C)=O)cc1)C(=O)Cc1c(Cl)cccc1Cl,15.9%
6,COc1ccc(N=c2oc3c(OC)cccc3cc2C(=O)NCc2ccco2)cc1OC,0.219%
7,O=C(NC1CCN(C(=S)NCc2ccco2)CC1)c1ccc(F)cc1,-27.1%
8,COc1ccc(Br)cc1CN1CCCCCCC1,-8.39%
9,COc1ccc(C2/C(=C(/O)c3ccccc3)C(=O)C(=O)N2c2ccccn2)cc1 (stereo not drawn),11.5%
10,C/C(CC(=O)NCCc1ccccc1)=N\NC(=O)COc1ccc(Br)cc1,6.95%
11,CC(CCc1ccccc1)NC(=O)c1cccc([N+](=O)[O-])c1 (stereo not drawn),10.5%
12,Cc1ccc(/C=C/C(=O)O)cc1S(=O)(=O)N1CCCc2ccccc21,11.7%
13,CCOC(=O)c1cnc2c(cnn2C)c1NCCCN(C)C,-13.5%
14,CCN(CC)C(=O)CSc1nnc(C2CCCCC2)o1,11.4%
15,CCc1noc(C)c1C(=O)Nc1nc(-c2ccccc2)c(C(C)=O)s1,-4.03%
16,Cn1nnc2cc(NC(=O)N3CCN(c4ccccn4)CC3)ccc21,1.73%
17,C1=CC(Cc2cncs2)c2ccccc21 (stereo not drawn),3.45%
18,Cc1ccc(OCC(O)CNC2CCCC2)c(C)c1.Cl (stereo not drawn),21.1%
19,COc1ccc(NC(=O)CSc2nccn2C)cc1S(N)(=O)=O,1.63%
